Reference: PMC11329700
Substitutions are numbered along the chain they refer to. Results are given in words; binding and its absence hold for the method and conditions named. In cells and extracts the contact can be indirect. Some results given as binding are weak or reduced against the parent protein; the word gives no strength. For part of these data: Tags and fused reporters may be left off the sequences shown.

Key:
Test in all cases: pull-down; GST fusion proteins on GSH-sepharose beads incubated with pre-cleared rat brain synaptosomal lysate (20 mM Tris pH 7.4, 150 mM NaCl, 1% Triton X-100, 1 mM EDTA, 1 mM EGTA) at 4 °C for 1 h; bound proteins by Coomassie stain or Western blot (some blots quantified by densitometry); only the target purified
[1] = target: GST-Dyn1xA-PRR (dynamin 1xA proline-rich region, amino acids 746-864) (rat) (UniProt P21575)
[2] = target: T1, GST-Dyn1xA-PRR 794-864 (rat) (UniProt P21575)
T1 sequence: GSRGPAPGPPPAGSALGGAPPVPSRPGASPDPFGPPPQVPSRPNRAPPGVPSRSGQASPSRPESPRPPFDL

[3] = target: T2, GST-Dyn1xA-PRR 806-864 (rat) (UniProt P21575)
T2 sequence: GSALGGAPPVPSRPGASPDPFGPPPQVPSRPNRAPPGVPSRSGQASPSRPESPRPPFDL

[4] = target: T3, GST-dyn1xA-PRR 806-864 P813/816A (rat) (UniProt P21575)
T3 sequence: T2 sequence with P8A, P11A

[5] = target: T4, GST-dyn1xA-PRR 806-864 P816/819A (rat) (UniProt P21575)
T4 sequence: T2 sequence with P11A, P14A

[6] = target: T5, GST-dyn1xA-PRR 806-864 P833/836A (rat) (UniProt P21575)
T5 sequence: T2 sequence with P28A, P31A

[7] = target: T6, GST-dyn1xA-PRR 806-864 R838A (rat) (UniProt P21575)
T6 sequence: T2 sequence with R33A

[8] = target: T7, GST-dyn1xA-PRR P813/816A (rat) (UniProt P21575)
T7 sequence: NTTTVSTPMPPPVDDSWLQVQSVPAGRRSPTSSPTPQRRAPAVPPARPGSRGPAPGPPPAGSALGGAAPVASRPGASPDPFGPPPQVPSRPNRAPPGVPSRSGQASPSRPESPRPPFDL

[9] = target: T8, GST-dyn1xA-PRR P816/819A (rat) (UniProt P21575)
T8 sequence: T7 sequence with A68P, P74A

[10] = target: T9, GST-dyn1xA-PRR P830/833A (rat) (UniProt P21575)
T9 sequence: T7 sequence with A68P, A71P, P85A, P88A

[11] = target: T10, GST-dyn1xA-PRR P833/836A (rat) (UniProt P21575)
T10 sequence: T7 sequence with A68P, A71P, P88A, P91A

[12] = target: T11, GST-dyn1xA-PRR P844A (rat) (UniProt P21575)
T11 sequence: T7 sequence with A68P, A71P, P99A

[13] = target: T12, GST-dyn1xA-PRR R846A (rat) (UniProt P21575)
T12 sequence: T7 sequence with A68P, A71P, R101A

[14] = target: T13, GST-dyn1xA-PRR S774/778E (rat) (UniProt P21575)
T13 sequence: T7 sequence with S29E, S33E, A68P, A71P

[15] = target: T14, GST-dyn1xA-PRR S851/857E (rat) (UniProt P21575)
T14 sequence: T7 sequence with A68P, A71P, S106E, S112E

Measured: binding

B1: Amphiphysin 1 (protein, UniProt O08838 1-683)
chain: MADIKTGIFAKNVQKRLNRAQEKVLQKLGKADETKDEQFEEYVQNFKRQEAEGTRLQRELRGYLAAIKGMQEASMKLTESLHEVYEPDWYGREDVKMVGEKCDVLWEDFHQKLVDGSLLTLDTYLGQFPDIKNRIAKRSRKLVDYDSARHHLEALQSSKRKDESRISKAEEEFQKAQKVFEEFNVDLQEELPSLWSRRVGFYVNTFKNVSSLEAKFHKEIAVLCHKLYEVMTKLGDQHADKAFSIQGAPSDSGPLRIAKTPSPPEEASPLPSPTASPNHTLAPASPAPVRPRSPSQTRKGPPVPPLPKVTPTKELQQENIINFFEDNFVPEINVTTPSQNEVLEVKKEETLLDLDFDPFKPDVTPAGSAAATHSPMSQTLPWDLWTTSTDLVQPASGGSFNDFTQPQDTSLFTMQTDQNMAETEQALPTEPQAEEPPTTAAAPTAGLDLGLEMEEPKEEAAIPPGTDAGETVGTEGSTGEEAEAEKAALPAGEGESPEGAKIDVESTELASSESPQAAELEAGAPQEKVIPSVVIEPASNHEGEEHQETTTGTETREATEDVAPQGPAGEKQELATEPTPLDSQAATPAPAGAVDASLSAGDAAQELPPGFLYKVETLHDFEAANSDELTLQRGDVVLVVPSDSEADQDAGWLVGVKESDWLQYRDLATYKGLFPENFTRHLE
no binding: [6] | [10] | [11]
binds weakly: [7]
binds: all other assays above
